The record followed here is the GPR68 mutational scans of Howard et al. (2025).

Sequences and labels used below:
B1: GPR68, Q15743 (parent)
chain: MGNITADNSSMSCTIDHTIHQTLAPVVYVTVLVVGFPANCLSLYFGYLQIKARNELGVYLCNLTVADLFYICSLPFWLQYVLQHDNWSHGDLSCQVCGILLYENIYISVGFLCCISVDRYLAVAHPFRFHQFRTLKAAVGVSVVIWAKELLTSIYFLMHEEVIEDENQHRVCFEHYPIQAWQRAINYYRFLVGFLFPICLLLASYQGILRAVRRSHGTQKSRKDQIQRLVLSTVVIFLACFLPYHVLLLVRSVWEASCDFAKGVFNAYHFSLLLTSFNCVADPVLYCFVSETTHRDLARLRGACLAFLTCSRTGRAREAYPLGAPEASGKSGAQGEEPELLTKLHPAFQTPNSPGSGGFPTGRLA

Scores with a large standard error are left out. The source holds two more conditions with little spread; they are left out. In variant names, del marks residues removed and ins residues inserted between the two positions. For some of these results: The concentration of ogerin is not given here.

The variants in series [1] derive from B1. Put plainly: cAMP reporter score (Enrich2 score, wild type = 0); higher = more signal; HEK293T, FACS bins.
The variants in series [2] derive from B1. Put plainly: surface expression score (Enrich2 score, wild type = 0); higher = more signal; HEK293T, FACS bins.

With S257_C258insGS, the cAMP reporter score in series [1] (pH 5.5) was -0.386; in series [1] (pH 6) it was -0.677; in series [1] (pH 6, modulator: ogerin) it was -0.916; in series [1] (pH 6.5, modulator: ogerin), -1.2. The surface expression score in series [2] turned out to be 1.95.

C258_D259del: the cAMP reporter score is -0.98 in series [1] (pH 5.5); -0.645 in series [1] (pH 6); -1.38 in series [1] (pH 6, modulator: ogerin); -1.11 in series [1] (pH 6.5, modulator: ogerin). The surface expression score in series [2] is -1.99.

As for S257_C258insG, the cAMP reporter score in series [1] (pH 5.5) is -2.37; in series [1] (pH 6), -1.3; in series [1] (pH 6, modulator: ogerin), -1.9; in series [1] (pH 6.5, modulator: ogerin) it was -1.4. The surface expression score in series [2] was found to be 0.643.

A256D: the cAMP reporter score in series [1] (pH 5.5) amounted to 0.57; in series [1] (pH 6), 1.68; in series [1] (pH 6, modulator: ogerin), 0.437; in series [1] (pH 6.5, modulator: ogerin) it was 2.06. In addition, the surface expression score in series [2] is 0.642.

Take A256M: the cAMP reporter score was 0.302 in series [1] (pH 5.5); 1.74 in series [1] (pH 6); -0.68 in series [1] (pH 6, modulator: ogerin); 1.27 in series [1] (pH 6.5, modulator: ogerin). For the same variant, the surface expression score in series [2] was 0.214.

For A256L, the cAMP reporter score in series [1] (pH 5.5) was -0.831; in series [1] (pH 6, modulator: ogerin), 0.6; in series [1] (pH 6.5, modulator: ogerin), 0.747. The surface expression score in series [2] is -0.434.

Consider A256E, for which the cAMP reporter score in series [1] (pH 5.5) was found to be 0.801; in series [1] (pH 6), 1.91; in series [1] (pH 6, modulator: ogerin) it was 1.29; in series [1] (pH 6.5, modulator: ogerin), 2.6. Further, the surface expression score in series [2] was 1.21.

Consider A256F, for which the cAMP reporter score was 0.269 in series [1] (pH 5.5); 0.519 in series [1] (pH 6); 0.913 in series [1] (pH 6, modulator: ogerin); 1.4 in series [1] (pH 6.5, modulator: ogerin). Also, the surface expression score in series [2] is -0.147.

Turning to A256Q, the cAMP reporter score in series [1] (pH 5.5) turned out to be 0.185; in series [1] (pH 6) it was 0.945; in series [1] (pH 6, modulator: ogerin), 1.41; in series [1] (pH 6.5, modulator: ogerin), 1.55. In addition, the surface expression score in series [2] was found to be 0.247.

Regarding A256R, the cAMP reporter score in series [1] (pH 5.5) was 0.916; in series [1] (pH 6) it was 1.22; in series [1] (pH 6, modulator: ogerin) it was 0.988. Also, the surface expression score in series [2] came to 1.21.

For A256V, the cAMP reporter score in series [1] (pH 5.5) is -0.786; in series [1] (pH 6), -0.516; in series [1] (pH 6, modulator: ogerin), -0.546; in series [1] (pH 6.5, modulator: ogerin) it was -0.653. Besides, in series [2], the surface expression score was -0.601.

Take A256T: the cAMP reporter score in series [1] (pH 5.5) is -0.226; in series [1] (pH 6) it was -0.051; in series [1] (pH 6, modulator: ogerin) it was -0.206; in series [1] (pH 6.5, modulator: ogerin) it was 0.564. Besides, the surface expression score in series [2] is -0.053.

For the variant A256Y, the cAMP reporter score in series [1] (pH 5.5) worked out at 1.12; in series [1] (pH 6), 2.26; in series [1] (pH 6, modulator: ogerin), 1.64; in series [1] (pH 6.5, modulator: ogerin), 2.13. Moreover, in series [2], the surface expression score came to 0.623.

Consider A256N, for which the cAMP reporter score amounted to 1.16 in series [1] (pH 5.5); 1.78 in series [1] (pH 6); 1.21 in series [1] (pH 6, modulator: ogerin); 2.15 in series [1] (pH 6.5, modulator: ogerin). The surface expression score in series [2] was found to be 1.6.

For the variant A256P, the cAMP reporter score was -0.41 in series [1] (pH 5.5); -0.546 in series [1] (pH 6); -0.229 in series [1] (pH 6, modulator: ogerin); 0.197 in series [1] (pH 6.5, modulator: ogerin). In addition, the surface expression score in series [2] is 3.46.

On to A256S, for which the cAMP reporter score stood at 0.919 in series [1] (pH 5.5); 0.273 in series [1] (pH 6); 1.67 in series [1] (pH 6, modulator: ogerin); 1.46 in series [1] (pH 6.5, modulator: ogerin). Besides, in series [2], the surface expression score was found to be 1.77.

A256I: the cAMP reporter score in series [1] (pH 5.5) was 0.242; in series [1] (pH 6), -0.093; in series [1] (pH 6, modulator: ogerin), 0.085; in series [1] (pH 6.5, modulator: ogerin), -0.429. Moreover, the surface expression score in series [2] is -0.706.

Regarding A256W, the cAMP reporter score in series [1] (pH 5.5) was 1.44; in series [1] (pH 6, modulator: ogerin), 0.392; in series [1] (pH 6.5, modulator: ogerin) it was -0.427.

Take A256C: the cAMP reporter score in series [1] (pH 5.5) is 0.111; in series [1] (pH 6), -0.621; in series [1] (pH 6, modulator: ogerin), 0.184; in series [1] (pH 6.5, modulator: ogerin), -1.19. Moreover, the surface expression score in series [2] was -0.482.

Consider A256K, for which the cAMP reporter score amounted to 0.358 in series [1] (pH 5.5); 2.46 in series [1] (pH 6); 1.13 in series [1] (pH 6, modulator: ogerin); 2.09 in series [1] (pH 6.5, modulator: ogerin). The surface expression score in series [2] came to 1.29.

With A256G, the cAMP reporter score in series [1] (pH 5.5) was determined as 0.795; in series [1] (pH 6) it was 1.52; in series [1] (pH 6, modulator: ogerin), 0.343; in series [1] (pH 6.5, modulator: ogerin) it was 0.791. In addition, the surface expression score in series [2] turned out to be 1.65.

Take A256H: the cAMP reporter score in series [1] (pH 5.5) is 0.495; in series [1] (pH 6), 1.57; in series [1] (pH 6, modulator: ogerin), 0.606; in series [1] (pH 6.5, modulator: ogerin) it was 1.9. The surface expression score in series [2] amounted to 0.584.

For the variant C258_D259insGSG, the cAMP reporter score in series [1] (pH 5.5) is -1.29; in series [1] (pH 6), -0.613; in series [1] (pH 6, modulator: ogerin) it was -0.739; in series [1] (pH 6.5, modulator: ogerin), -0.391. Also, the surface expression score in series [2] is 1.85.

As for S257del, the cAMP reporter score in series [1] (pH 5.5) is -1.68; in series [1] (pH 6) it was -0.235; in series [1] (pH 6, modulator: ogerin), -1.59; in series [1] (pH 6.5, modulator: ogerin), -1.03. The surface expression score in series [2] was -1.28.

Turning to A256_S257insGS, the cAMP reporter score in series [1] (pH 5.5) is -0.754; in series [1] (pH 6) it was -0.939; in series [1] (pH 6, modulator: ogerin) it was -1.32; in series [1] (pH 6.5, modulator: ogerin) it was -0.705. For the same variant, in series [2], the surface expression score was determined as 1.77.

On to S257_D259del, for which the cAMP reporter score in series [1] (pH 5.5) was -1.37; in series [1] (pH 6) it was -1.1; in series [1] (pH 6, modulator: ogerin) it was -1.48; in series [1] (pH 6.5, modulator: ogerin), -1.25. In addition, the surface expression score in series [2] was -2.39.

For the variant D259del, the cAMP reporter score was -1.85 in series [1] (pH 5.5); -0.773 in series [1] (pH 6); -1.66 in series [1] (pH 6, modulator: ogerin); -0.632 in series [1] (pH 6.5, modulator: ogerin). Besides, in series [2], the surface expression score was -1.39.

V250_R251insGS: the cAMP reporter score in series [1] (pH 5.5) was -1.28; in series [1] (pH 6), -1.61; in series [1] (pH 6, modulator: ogerin) it was -1.81; in series [1] (pH 6.5, modulator: ogerin), -0.889. Further, the surface expression score in series [2] was -2.89.

Regarding V250L, the cAMP reporter score is -0.575 in series [1] (pH 5.5); -1.5 in series [1] (pH 6); -0.088 in series [1] (pH 6, modulator: ogerin); -0.928 in series [1] (pH 6.5, modulator: ogerin). Also, in series [2], the surface expression score was found to be 0.338.

As to V250Q, the cAMP reporter score is -1.49 in series [1] (pH 5.5); -1.26 in series [1] (pH 6); -1.15 in series [1] (pH 6, modulator: ogerin); -0.862 in series [1] (pH 6.5, modulator: ogerin). Besides, in series [2], the surface expression score is -2.93.

As to V250M, the cAMP reporter score was 0.314 in series [1] (pH 5.5); -1.51 in series [1] (pH 6); 0.528 in series [1] (pH 6, modulator: ogerin); -0.84 in series [1] (pH 6.5, modulator: ogerin). In addition, in series [2], the surface expression score was -0.439.
